# Test results published in the antibiotic and cytotoxicity screens of Wong et al. (2023).
# This is one part of the list.
# Test system: HSkMC (human skeletal muscle cells)
# Assay: cytotoxicity call (relative viability < 0.9)
# Conditions: 10 µM
row,Compound,cytotoxicity call
1,OC[C@H]1O[C@H](O[C@]2(CCl)O[C@H](CCl)[C@@H](O)[C@@H]2O)[C@H](O)[C@@H](O)[C@H]1Cl,inactive
2,COC(=O)c1cnn2c(=O)c3c([nH]c12)CCC3,inactive
3,C[C@@H]1CN([C@H](C)CO)C(=O)c2cc(NC(=O)NC3CCCCC3)ccc2O[C@@H]1CN(C)Cc1ccc(C(F)(F)F)cc1,inactive
4,C[C@H](CO)N1C[C@H](C)[C@@H](CN(C)Cc2ccc(-c3ccccc3)cc2)Oc2ccc(NS(=O)(=O)c3ccc(Cl)cc3)cc2C1=O,active
5,NCc1nnnn1-c1ccc(F)cc1,inactive
6,Cc1noc(C)c1S(=O)(=O)Nc1ccc2c(c1)CC(=O)N([C@H](C)CO)C[C@@H](C)[C@H](CN(C)S(=O)(=O)c1cccs1)O2,inactive
7,C[C@@H]1CN([C@H](C)CO)C(=O)CCCn2cc(nn2)CO[C@@H]1CN(C)S(C)(=O)=O,inactive
8,C[C@@H]1CCCCO[C@H](CN(C)Cc2ccc(C(=O)O)cc2)[C@@H](C)CN([C@@H](C)CO)C(=O)c2cc(NC(=O)Nc3ccc4c(c3)OCO4)ccc2O1,inactive
9,C[C@@H]1CN([C@@H](C)CO)C(=O)c2cccc(NC(=O)C3CCCCC3)c2O[C@H]1CN(C)C(=O)Nc1ccc(C(F)(F)F)cc1,inactive
10,C[C@@H]1CN([C@H](C)CO)C(=O)CCCn2cc(nn2)CO[C@H]1CN(C)S(=O)(=O)c1ccc(C#N)cc1,inactive
11,C=CCNC(=O)[C@H]1[C@@H]2C(=O)O[C@@H](c3ccccc3)[C@@H](c3ccccc3)N2[C@@H](c2ccccc2OCCO)[C@]12C(=O)N(C(=O)OCCOC)c1ccc(C#Cc3ccc(OC)cc3)cc12,inactive
12,Cc1ccc(S(=O)(=O)Nc2ccc3c(c2)C(=O)N([C@H](C)CO)C[C@H](C)[C@H](CN(C)C(=O)Nc2ccc(C(F)(F)F)cc2)O3)cc1,inactive
13,COc1ccc(S(=O)(=O)Nc2cccc3c2O[C@H](CN(C)Cc2ccc(Oc4ccccc4)cc2)[C@H](C)CN([C@@H](C)CO)C3=O)cc1,inactive
14,C[C@@H]1CN([C@@H](C)CO)C(=O)c2cc(NC(=O)Nc3cccc4ccccc34)ccc2O[C@@H](C)CCCCO[C@@H]1CN(C)S(=O)(=O)c1ccccc1,inactive
15,C[C@H]1CN([C@@H](C)CO)S(=O)(=O)c2ccc(C#CC(C)(C)O)cc2O[C@H]1CN(C)C(=O)CN(C)C,inactive
16,CN1CC(=O)Nc2ccc([N+](=O)[O-])cc2C1=O,inactive
17,C[C@H]1CN([C@@H](C)CO)C(=O)c2cccc(NS(=O)(=O)c3ccc(F)cc3)c2O[C@H]1CN(C)C(=O)Nc1ccc(C(F)(F)F)cc1,inactive
18,CC(C)NC(=O)N(C)C[C@H]1Oc2ccc(NC(=O)Cn3cnnn3)cc2CC(=O)N([C@H](C)CO)C[C@H]1C,inactive
19,C[C@@H]1CCCCO[C@@H](CN(C)C(=O)NC2CCCCC2)[C@@H](C)CN([C@H](C)CO)C(=O)c2cc(NS(=O)(=O)c3cccs3)ccc2O1,inactive
20,Cc1noc(C)c1S(=O)(=O)N(C)C[C@@H]1OCCCC[C@H](C)Oc2ccc(N(C)C)cc2C(=O)N([C@H](C)CO)C[C@H]1C,inactive

row,Compound,cytotoxicity call
1,COc1ccc(NC(=O)N(C)C[C@H]2Oc3ncc(C#C[C@@H](C)O)cc3C(=O)N([C@@H](C)CO)C[C@@H]2C)cc1,inactive
2,C[C@H](CO)N1C[C@H](C)[C@@H](CN(C)Cc2ccc(-c3ccccc3)cc2)Oc2ccc(NC(=O)CCC(F)(F)F)cc2C1=O,inactive
3,CC(=O)O[C@H]1CC(C)(C)C[C@H]2[C@]13CO[C@@]21CC[C@@H]2[C@@]4(C)CC[C@H](O[C@@H]5O[C@H](C(=O)O)[C@@H](O)[C@H](O[C@@H]6O[C@H](CO)[C@H](O)[C@H](O)[C@H]6O[C@@H]6O[C@@H](C)[C@H](O)[C@@H](O)[C@H]6O)[C@H]5O[C@@H]5O[C@H](CO)[C@@H](O)[C@H](O)[C@H]5O)C(C)(C)[C@@H]4CC[C@@]2(C)[C@]1(C)C[C@H]3O,inactive
4,C[C@H]1CCCCO[C@@H](CN(C)CC2CCCCC2)[C@@H](C)CN([C@@H](C)CO)C(=O)c2cc(NS(=O)(=O)c3ccc(F)cc3)ccc2O1,inactive
5,C[C@@H]1CN([C@@H](C)CO)C(=O)c2cccc(NC(=O)c3nc4ccccc4s3)c2O[C@H]1CN(C)C(=O)Nc1cccc2ccccc12,inactive
6,C[C@H]1CN([C@@H](C)CO)C(=O)Cc2cc(NS(=O)(=O)c3cn(C)cn3)ccc2O[C@@H]1CN(C)C(=O)Nc1ccc(F)cc1,inactive
7,C[C@@H]1CCCCO[C@H](CN(C)Cc2ccc(C(=O)O)cc2)[C@H](C)CN([C@H](C)CO)C(=O)c2cc(NC(=O)c3ccccc3)ccc2O1,inactive
8,COc1ccc(C=CC(=O)c2cc(O)ccc2O)cc1,inactive
9,C[C@H]1CN([C@@H](C)CO)C(=O)CCCn2cc(nn2)CO[C@H]1CN(C)S(=O)(=O)c1ccc(-n2cccn2)cc1,inactive
10,COc1ccc(NC(=O)N(C)C[C@H]2Oc3ccc(NC(=O)Nc4cccc5ccccc45)cc3C(=O)N([C@@H](C)CO)C[C@H]2C)cc1,inactive
11,CCCCC(CC)COC(=O)C(C#N)=C(c1ccccc1)c1ccccc1 (stereo not given),inactive
12,C[C@@H]1CCCCO[C@@H](CN(C)Cc2ccc(C(F)(F)F)cc2)[C@@H](C)CN([C@H](C)CO)C(=O)c2cc(NC(=O)Nc3ccccc3)ccc2O1,inactive
13,COC[C@@H](C)NC(=O)C1CN(C(C)=O)C1,inactive
14,Cc1c(C)n2c3c(=O)[nH]c(=O)n(C)c3nc2n1C,inactive
15,C[C@@H]1CN([C@@H](C)CO)C(=O)c2cc(NC(=O)Nc3ccc4c(c3)OCO4)ccc2O[C@@H](C)CCCCO[C@H]1CN(C)C(=O)Nc1ccccc1,inactive
16,C[C@H](CO)N1C[C@H](C)[C@@H](CN(C)C(=O)Nc2cccc(F)c2)Oc2ncc(C#CCN(C)C)cc2C1=O,inactive
17,COc1ccc(S(=O)(=O)N(C)C[C@H]2Oc3c(NS(C)(=O)=O)cccc3C(=O)N([C@H](C)CO)C[C@@H]2C)cc1,inactive
18,C[C@H](CO)N1C[C@H](C)[C@H](CN(C)Cc2ccc3c(c2)OCO3)OCCCC[C@H](C)Oc2ccc(NS(=O)(=O)c3cccs3)cc2C1=O,inactive
19,Cc1ccc(S(=O)(=O)N(C)C[C@@H]2OCCCC[C@@H](C)Oc3ccc(NS(=O)(=O)c4ccc(F)cc4)cc3C(=O)N([C@H](C)CO)C[C@@H]2C)cc1,inactive
20,CC(C)NC(=O)N(C)C[C@H]1OCCCC[C@H](C)Oc2ccc(NS(=O)(=O)c3cn(C)cn3)cc2C(=O)N([C@@H](C)CO)C[C@@H]1C,inactive
